In all, about 4,500 sequences were measured (“median log2 fold change of GCK-ALFA target abundance (FLAG IP / Myc IP barcode read proportion)”: median about 0.078, lowest 2% from about -0.6 on). This is one part of the list.
B1: GBRAP_128_3600 (protein)
chain: AAEEAREKAREMMEKIKESNLEEAAKIAKELGEYLLTLSLEEVEAAAEEIIKRAPELSEDKLLILQDALHAAAQKASPEKAEVLLYALGELGEEAYEKEE
B2: GBRAP_177_5012 (protein)
chain: SVVEQAEAALDDLEALLALVKSTDFSKLSKEEALALIAILAKAIAKHGYDEEAVEALAKLILAAMKYHGVTLGELLGIVIEHVDADTAEKVLERVEKLRE
B3: GBRAP_35_5596 (protein)
chain: ELDELAVESTIDMIEALIEGVPELPVDTLAAIARTLAREVRELAEELKDNKEALKRLREAVERLREALERHHADDPRAQEVIKELREVAKYLEELAKEVE
B4: GBRAP_78_6677 (protein)
chain: EVEEELEKAMEELSKAAKILNKMNTEEALDILGKVIDVLEIVWEAYNGEADLEELEEALKLLKEALEETKKINTEEAKKAAEHLEKAIEHLEKAIKLLKK
B5: GBRAP_160_4460 (protein)
chain: MEKIKKYVEDLVADVKAELEANKDDSNENIINAASIVIGSHLMEAVDEGILTDEQEEILMKAMDEIEELKKTLPDASPEEIIAKIKEIIDKMAKEILESA
B6: GBRAP_160_4212 (protein)
chain: GEKIEEIIKMIKEATEEVIKLIPEESREEVANFAAVEYGSVLMEAVDMGEENDEILDTIADAADEIVATLLANKDASDEEVAAKLKAITEKAIEEIKKIA
B7: GBRAP_160_4174 (protein)
chain: SETLEEAKKEIKEIFEEAYEMMKGQTAEERAAIARVAFGEVILLLEEKGLLTDELDEYIEEVEEEVVNYILENPDLTDEELKKLLEEAREKIIKALEESS
B8: GBRAP_95_7042 (protein)
chain: DDDVLATESAAEVLETAVALGDKEAARKAAKELLELLAETPVEKVKLDLSPETAKAIIAVAKETYDRETAIALLEKLAAVLTNPEVKALALAAAAALRAE

Target: GABARAP, O95166
Assay: median log2 fold change of GCK-ALFA target abundance (FLAG IP / Myc IP barcode read proportion) (log2 ratio); each designed protein is fused to an ALFA-tag nanobody in HEK293 cells to bring the named protein to FLAG-tagged glucokinase (GCK); Myc marks an untargeted standard; higher = target protein stabilised (more abundant)
Conditions: target protein: 3xFLAG-MCP-GCK-ALFA reporter; HEK293 landing pad (RPLP)
Experimental: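 LABEL-seq trans screen in HEK293 landing-pad cells. Each de novo designed 100-aa effector handle, binding the indicated effector (E3 ligase, DUB or autophagy protein), is fused to a constant NbALFA target handle and induced with 2 ug/mL doxycycline. A FLAG-MCP-GCK-ALFA target and a Myc-MCP standard reporter were transfected, and after 48 h circRNA barcodes were recovered by anti-FLAG and anti-Myc IP and sequenced. The value is the median across barcodes (at least 3 per design) of log2(FLAG/Myc read-proportion ratio), with the two transfection replicates pooled. Negative values mean degradation and positive values mean stabilisation of the target.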

Sequence of GABARAP, O95166 (O95166 whole entry, the tested form may be a part): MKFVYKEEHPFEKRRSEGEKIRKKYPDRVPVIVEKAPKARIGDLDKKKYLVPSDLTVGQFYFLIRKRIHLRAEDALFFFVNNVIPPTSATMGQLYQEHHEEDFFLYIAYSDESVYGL

Binder | median log2 fold change
B1 | 0.418
B2 | 0.215
B3 | 0.0872
B4 | -0.499
B5 | 0.184
B6 | -0.329
B7 | -0.374
B8 | 0.332

From the supplement of paper PMC12632987
